Assay results as given in the supplement of paper PMC4604168 (melanoma cell lines).
The other results are listed elsewhere or left out. Single values are uncertain, as repeats are few or missing.

What was measured:
Experiment in all cases: cell count relative to DMSO control; melanoma cells; higher = more viable cells
Conditions in all cases: library dose: standard library concentration; 72 h
[1] = system: G361
[2] = system: IPC-298
[3] = system: IST-MEL1
[4] = system: LB2518-MEL
[5] = system: LOXIMVI
[6] = system: MEL-HO
[7] = system: MZ2-MEL
[8] = system: MeWo
[9] = system: RPMI7951
[10] = system: RVH-421
[11] = system: SkMel28
[12] = system: SkMel2
[13] = system: SkMel30
[14] = system: SkMel5
[15] = system: UACC257
[16] = system: UACC62
[17] = system: WM115
[18] = system: WM1716
[19] = system: WM1745
[20] = system: WM3526
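Note: cells treated in 1,536-well plates, then fixed and DAPI-stained, with nuclei counted from automated high-throughput microscope images.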

Compound | cell count [1] | cell count [2] | cell count [3] | cell count [4] | cell count [5] | cell count [6] | cell count [7] | cell count [8] | cell count [9] | cell count [10] | cell count [11] | cell count [12] | cell count [13] | cell count [14] | cell count [15] | cell count [16] | cell count [17] | cell count [18] | cell count [19] | cell count [20]
Cn1nnc2c(C(N)=O)ncn2c1=O [temozolomide] + CC1(C)NC(=O)N(c2ccc([N+](=O)[O-])c(C(F)(F)F)c2)C1=O [nilutamide] (first compound 10 µM, partner dose 5 µM) | 98.8% | 90% | 71.2% | 89% | 78.6% | 84.1% | 91.9% | 102% | 102% | 94.6% | 46.9% | 98.7% | 60.8% | 77.8% | 98.8% | 76.4% | 68.9% | 54% | 91.5% | 94.5%
O=C(O)c1ccc2c(c1)nc(Nc1cccc(Cl)c1)c1ccncc12 + Nc1cccc2c1CN(C1CCC(=O)NC1=O)C2=O [lenalidomide] (first compound 2 µM, partner dose 5 µM) | 67.3% | 84.8% | 79.6% | 98.9% | 49.8% | 69.7% | 65.4% | 79.9% | 76.6% | 70.5% | 57% | 79.5% | 68.5% | 71% | 85.1% | 68.2% | 77.4% | 97.6% | 64.8% | 74.8%
O=C(Nc1cc(C(F)(F)F)cc(C(F)(F)F)c1)c1cc(Cl)ccc1O + COc1ccc(Cl)c(Nc2nc3ccccc3nc2NS(=O)(=O)c2cccc(NC(=O)C(C)(C)N)c2)c1 [XL147] (first compound 0.08 µM, partner dose 4 µM) | 89.2% | 72.8% | 61.7% | 108% | 117% | 72% | 99.1% | 75.9% | 93.2% | 82.3% | 92.8% | 109% | 129% | 79.7% | 90% | 79.6% | 82.6% | 81.3% | 103% | 90.8%
O=C(O)c1ccc2c(c1)nc(Nc1cccc(Cl)c1)c1ccncc12 + Cc1ccc(NC(=O)c2cccc(N(C)C)c2)cc1NC(=O)c1ccc(O)cc1 [ZM336372] (first compound 2 µM, partner dose 10 µM) | 52.2% | 77.7% | 68.8% | 87.6% | 46.3% | 56.4% | 73.8% | 82.9% | 42.7% | 66.3% | 71.2% | 51.7% | 86.5% | 72.5% | 77.2% | 78.3% | 75.3% | 90.3% | 52.4% | 72%
O=C(Nc1cc(C(F)(F)F)cc(C(F)(F)F)c1)c1cc(Cl)ccc1O + Clc1ccc(Nc2nnc(Cc3ccncc3)c3ccccc23)cc1 [vatalanib] (first compound 0.08 µM, partner dose 10 µM) | 61.2% | 69.1% | 65.1% | 91.4% | 89.7% | 61.5% | 67.2% | 63.6% | 52.5% | 87.3% | 71.4% | 73.1% | 82.8% | 63.2% | 76.3% | 106% | 69.7% | 94.6% | 22.8% | 71.9%
O=C(O)[C@@H]1[O][Sb](=[O])([O][Sb]2(=[O])[O][C@H]([C@H](O)CO)[C@H](O)[C@H](C(=O)O)[O]2)[O][C@H]([C@H](O)CO)[C@@H]1O (stereo not given in full) [stibogluconate] + C[C@]1(c2nc3c(C(N)=O)cccc3[nH]2)CCCN1 [Veliparib] (first compound 10 µM, partner dose 7 µM) | 123% | 98.6% | 98.8% | 82.5% | 58.5% | 95.1% | 102% | 98.1% | 78.9% | 86.4% | 92.5% | 112% | 112% | 70.4% | 88.5% | 69% | 91.3% | 82.2% | 87.3% | 104%
Cn1nnc2c(C(N)=O)ncn2c1=O [temozolomide] + O=c1cc(-c2cccc3c2Sc2ccccc2S3)oc(N2CCOCC2)c1 [KU55933] (first compound 10 µM, partner dose 5 µM) | 76.6% | 80.2% | 87.5% | 114% | 122% | 86% | 73.8% | 94% | 83.7% | 83.6% | 45.8% | 78.3% | 57.2% | 96.7% | 105% | 52.2% | 90.3% | 61.7% | 97.6% | 70.3%
O=C(O)[C@@H]1[O][Sb](=[O])([O][Sb]2(=[O])[O][C@H]([C@H](O)CO)[C@H](O)[C@H](C(=O)O)[O]2)[O][C@H]([C@H](O)CO)[C@@H]1O (stereo not given in full) [stibogluconate] + CC(C)(C)c1cnc(CSc2cnc(NC(=O)C3CCNCC3)s2)o1 [SNS-032] (first compound 10 µM, partner dose 0.05 µM) | 93.4% | 124% | 89% | 84.6% | 70.9% | 91.7% | 108% | 89.3% | 25.5% | 81.1% | 55.5% | 83.7% | 85.5% | 73.8% | 100% | 57.1% | 86.9% | 81.8% | 87.3% | 93.5%
Cn1nnc2c(C(N)=O)ncn2c1=O [temozolomide] + Cn1cncc1[C@@](N)(c1ccc(Cl)cc1)c1ccc2c(c1)c(-c1cccc(Cl)c1)cc(=O)n2C [tipifarnib] (first compound 10 µM, partner dose 0.05 µM) | 83.7% | 95.9% | 92.6% | 68.9% | 72.2% | 99.7% | 107% | 100% | 101% | 91.7% | 68.8% | 79.8% | 81.4% | 71.4% | 103% | 74.8% | 83.4% | 78.5% | 91.4% | 74.5%
O=C(O)c1ccc2c(c1)nc(Nc1cccc(Cl)c1)c1ccncc12 + CO[C@@H]1[C@H](N(C)C(=O)c2ccccc2)C[C@H]2O[C@]1(C)n1c3ccccc3c3c4c(c5c6ccccc6n2c5c31)C(=O)NC4 [Midostaurin] (first compound 2 µM, partner dose 0.4 µM) | 36.6% | 54.1% | 63.9% | 73.8% | 29.2% | 39.8% | 44.5% | 54.7% | 32.3% | 53.1% | 42.5% | 35.9% | 74.4% | 44.6% | 49.9% | 67.6% | 46.4% | 40.7% | 22.9% | 47%
O=C(O)c1ccc2c(c1)nc(Nc1cccc(Cl)c1)c1ccncc12 + CCCS(=O)(=O)Nc1ccc(F)c(C(=O)c2c[nH]c3ncc(Cl)cc23)c1F [PLX4720] (first compound 2 µM, partner dose 0.4 µM) | 35.4% | 56% | 67.6% | 94.7% | 57.8% | 41.4% | 53.4% | 75.3% | 73.9% | 65.2% | 43.4% | 73.7% | 69.5% | 64.6% | 65.5% | 49.2% | 76.8% | 73.3% | 66.9% | 35.2%
O=C(O)[C@@H]1[O][Sb](=[O])([O][Sb]2(=[O])[O][C@H]([C@H](O)CO)[C@H](O)[C@H](C(=O)O)[O]2)[O][C@H]([C@H](O)CO)[C@@H]1O (stereo not given in full) [stibogluconate] + CC1(C)NC(=O)N(c2ccc([N+](=O)[O-])c(C(F)(F)F)c2)C1=O [nilutamide] (first compound 10 µM, partner dose 5 µM) | 102% | 118% | 91.6% | 108% | 85.1% | 94.8% | 118% | 100% | 120% | 92% | 103% | 99.7% | 120% | 122% | 95% | 96% | 123% | 108% | 120% | 87.3%
Cc1cc(N2CCOCC2)cc2[nH]c(-c3c(NC[C@@H](O)c4cccc(Cl)c4)cc[nH]c3=O)nc12 + COc1cc(N2CCC(N3CCN(C)CC3)CC2)ccc1Nc1ncc(Cl)c(Nc2ccccc2S(=O)(=O)C(C)C)n1 [NVP-TAE684] (first compound 1 µM, partner dose 0.4 µM) | 69% | 93.3% | 90.2% | 80.9% | 55% | 86.7% | 101% | 63.1% | 49.5% | 100% | 67.7% | 70.4% | 104% | 54.6% | 97.2% | 70.8% | 60.9% | 80.8% | 52.1% | 65.3%
O=C(Nc1cc(C(F)(F)F)cc(C(F)(F)F)c1)c1cc(Cl)ccc1O + CS(=O)(=O)CCNCc1ccc(-c2ccc3ncnc(Nc4ccc(OCc5cccc(F)c5)c(Cl)c4)c3c2)o1 [lapatinib] (first compound 0.08 µM, partner dose 4 µM) | 72.7% | 75.7% | 90.4% | 114% | 92.2% | 77.2% | 56% | 103% | 90.3% | 97% | 82% | 74.9% | 104% | 68% | 87.1% | 75% | 125% | 88.4% | 96.2% | 82.4%
O=C(O)[C@@H]1[O][Sb](=[O])([O][Sb]2(=[O])[O][C@H]([C@H](O)CO)[C@H](O)[C@H](C(=O)O)[O]2)[O][C@H]([C@H](O)CO)[C@@H]1O (stereo not given in full) [stibogluconate] + Clc1ccc(Nc2nnc(Cc3ccncc3)c3ccccc23)cc1 [vatalanib] (first compound 10 µM, partner dose 10 µM) | 68% | 73.1% | 69.4% | 109% | 73.3% | 48.8% | 69.9% | 67% | 82.4% | 78.3% | 86.5% | 92.7% | 98.8% | 63.6% | 74.9% | 68.9% | 82.9% | 78.7% | 88% | 72.2%
